From PMC4336329 (PLoS ONE, 2015)
Screen size: about 310,000 compounds; about 2,200 (0.71%) showed an effect of 50% or more. The effect is printed as a negative number. The list shows a part of the results.

Each molecule was assayed against human ether-à-go-go-related gene (hERG) potassium channel (human, UniProt Q12809) (assay: primary screen, population patch clamp on CHO cells stably expressing hERG).
Sequence of human ether-à-go-go-related gene (hERG) potassium channel (Q12809 whole entry, looked up): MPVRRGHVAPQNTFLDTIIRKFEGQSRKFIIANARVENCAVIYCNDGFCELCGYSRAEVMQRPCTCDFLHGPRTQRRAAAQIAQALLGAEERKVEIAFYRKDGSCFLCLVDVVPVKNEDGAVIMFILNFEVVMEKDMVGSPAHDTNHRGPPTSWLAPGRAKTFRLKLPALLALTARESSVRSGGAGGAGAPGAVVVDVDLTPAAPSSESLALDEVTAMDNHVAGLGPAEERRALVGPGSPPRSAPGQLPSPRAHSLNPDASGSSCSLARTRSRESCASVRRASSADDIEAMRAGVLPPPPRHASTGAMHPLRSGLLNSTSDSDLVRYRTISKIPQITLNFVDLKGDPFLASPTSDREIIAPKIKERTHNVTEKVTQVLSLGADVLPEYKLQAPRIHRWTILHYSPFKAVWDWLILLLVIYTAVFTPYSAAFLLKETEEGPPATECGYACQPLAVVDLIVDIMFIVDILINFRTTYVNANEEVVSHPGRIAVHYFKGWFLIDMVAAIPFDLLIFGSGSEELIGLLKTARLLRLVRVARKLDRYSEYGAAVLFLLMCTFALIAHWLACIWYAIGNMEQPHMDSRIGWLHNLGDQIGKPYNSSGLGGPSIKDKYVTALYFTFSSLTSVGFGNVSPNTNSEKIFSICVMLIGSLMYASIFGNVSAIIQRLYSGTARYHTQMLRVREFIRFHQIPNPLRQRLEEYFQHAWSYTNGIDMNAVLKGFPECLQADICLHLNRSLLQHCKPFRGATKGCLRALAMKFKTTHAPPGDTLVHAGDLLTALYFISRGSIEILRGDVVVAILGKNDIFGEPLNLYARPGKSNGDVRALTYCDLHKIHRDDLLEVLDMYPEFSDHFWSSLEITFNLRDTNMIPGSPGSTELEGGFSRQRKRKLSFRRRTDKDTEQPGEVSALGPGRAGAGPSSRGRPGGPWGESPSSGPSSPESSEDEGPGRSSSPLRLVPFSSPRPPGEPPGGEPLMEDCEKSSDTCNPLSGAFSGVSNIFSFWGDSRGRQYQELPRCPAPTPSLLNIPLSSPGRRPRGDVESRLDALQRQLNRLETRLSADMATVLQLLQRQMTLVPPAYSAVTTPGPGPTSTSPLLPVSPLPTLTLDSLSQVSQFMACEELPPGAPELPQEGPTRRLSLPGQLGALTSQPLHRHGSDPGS
In the case of `CCOC(=O)c1c(-c2ccc(OC)cc2)csc1NC(=O)CSc1ncnc2sccc12`, the “hERG current change (%, negative = inhibition) at 1uM” value is reported as -9.17%.
`Fc1ccccc1CCNc1c2c(nc3ncnn13)CCCC2` was tested, and the “hERG current change (%, negative = inhibition) at 1uM” value was 8.12%.
For `Cn1cccc1Cc1nnc(SCC(=O)Nc2ccccc2)n1-c1ccc(F)cc1`, the “hERG current change (%, negative = inhibition) at 1uM” value was -13.6%.
In the case of `CCOc1ccc(-c2cc(C(=O)O)c3ccccc3n2)c(OCC)c1`, the “hERG current change (%, negative = inhibition) at 1uM” value is reported as 17.7%.
`COc1ccc(/C=C/C(=O)CC(O)(c2ccccc2)C(F)(F)F)cc1` (stereo not drawn) was tested, and the “hERG current change (%, negative = inhibition) at 1uM” value was 8.29%.
With `N/C(=N\OC(=O)COc1ccc([N+](=O)[O-])cc1)c1cccnc1` the “hERG current change (%, negative = inhibition) at 1uM” value was 6.39%.
For `O=C(Nc1nccs1)C1(S(=O)(=O)c2ccc(Cl)cc2)CC1`, the “hERG current change (%, negative = inhibition) at 1uM” value was 5.54%.
In the case of `O=C(COc1ccc(C(=O)c2ccccc2)cc1)NCC(=O)Nc1ccccc1Br`, the “hERG current change (%, negative = inhibition) at 1uM” value is reported as 4.33%.
`c1ccc(CC(NCc2ccco2)c2ccccc2)cc1` (stereo not drawn) was tested, and the “hERG current change (%, negative = inhibition) at 1uM” value was 14.5%.
`COc1ccc(-c2noc(C(=O)NCc3ccccc3Cl)n2)cc1OC` was tested, and the “hERG current change (%, negative = inhibition) at 1uM” value was 3.53%.
For `O=C(CSc1nc2ncccc2[nH]1)Nc1c(F)cc(F)cc1Br`, the “hERG current change (%, negative = inhibition) at 1uM” value was 14.6%.
In the case of `CCOC(=O)Cn1nnnc1CN(CCc1ccccc1)Cc1cc2cc(CC)ccc2[nH]c1=O`, the “hERG current change (%, negative = inhibition) at 1uM” value is reported as 9.08%.
In the case of `COc1ccc(S(=O)(=O)N2CCCCC2)cc1NC(=O)[C@@H]1CCCN1C(=O)c1cccs1`, the “hERG current change (%, negative = inhibition) at 1uM” value is reported as 3.66%.
For `CCOC(=O)N1CCN(S(=O)(=O)c2ccc(F)c(C(=O)Nc3ccc(C)c(Cl)c3)c2)CC1`, the “hERG current change (%, negative = inhibition) at 1uM” value was 10.9%.
In the case of `O=C(/C(=C/c1ccc(Cl)cc1)c1nc2ccccc2[nH]1)c1ccccc1`, the “hERG current change (%, negative = inhibition) at 1uM” value is reported as 7.29%.
For `C=CCNC(=S)Nc1sc2c(c1C(N)=O)CCCC2`, the “hERG current change (%, negative = inhibition) at 1uM” value was 12.6%.
In the case of `CCOC(=O)C1=C(C)N(c2ccc(OC)cc2)C(=O)/C1=C\c1cccs1`, the “hERG current change (%, negative = inhibition) at 1uM” value is reported as 4.07%.
`CNC(=S)N/N=C/c1cn(Cc2ccc(F)cc2)c2ccccc12` was tested, and the “hERG current change (%, negative = inhibition) at 1uM” value was 3.49%.
`CN(C)C(=O)CSc1ncnc2scc(-c3ccccc3)c12` was tested, and the “hERG current change (%, negative = inhibition) at 1uM” value was 4.5%.
`CCOC(=O)c1ccc(N2C(=O)CC(Sc3nc(C)cc(C)n3)C2=O)cc1` (stereo not drawn) was tested, and the “hERG current change (%, negative = inhibition) at 1uM” value was 16.6%.
In the case of `C#CCOc1coc(COC(=O)c2ccccc2)cc1=O`, the “hERG current change (%, negative = inhibition) at 1uM” value is reported as 6.3%.
`COCC(=O)N(CCc1ccc(OC)c(OC)c1)Cc1cc2cc(C)ccc2nc1Cl` was tested, and the “hERG current change (%, negative = inhibition) at 1uM” value was 8.73%.
With `Cc1c(C(=O)Nc2nnc(C(F)(F)F)s2)oc2ccccc12` the “hERG current change (%, negative = inhibition) at 1uM” value was 9.97%.
For `N#Cc1ccccc1OCC(=O)Nc1cccc(S(=O)(=O)N2CCCCCC2)c1`, the “hERG current change (%, negative = inhibition) at 1uM” value was -8.66%.
`Cc1cc(C)nc(/N=C(\N)Nc2ccc(OCCC(C)C)cc2)n1` was tested, and the “hERG current change (%, negative = inhibition) at 1uM” value was -55.9%.
For `Cc1cc(=O)c(C(=O)O)nn1-c1ccccc1C(F)(F)F`, the “hERG current change (%, negative = inhibition) at 1uM” value was 7.89%.
In the case of `O=C(CSc1ncc(-c2ccccc2)n1C1CCCC1)N1CCc2ccccc21`, the “hERG current change (%, negative = inhibition) at 1uM” value is reported as 11%.
For `O=Cc1cn(CCOc2ccccc2)c2ccccc12`, the “hERG current change (%, negative = inhibition) at 1uM” value was 11.9%.
For `Cc1ccc(-n2c(SCc3ccc(C(=O)O)cc3)nnc2-c2ccncc2)cc1`, the “hERG current change (%, negative = inhibition) at 1uM” value was 11.3%.
For `CCCn1nnc(NCc2ccc(OCc3cccs3)c(OC)c2)n1`, the “hERG current change (%, negative = inhibition) at 1uM” value was 12.4%.
`CCCCNC(=O)C1(NC(=O)Nc2ccccc2)CCCCC1` was tested, and the “hERG current change (%, negative = inhibition) at 1uM” value was 5.83%.
For `CC(C)[C@H](NC(=O)OCc1ccccc1)C(=O)OCC(=O)NCCc1ccccc1`, the “hERG current change (%, negative = inhibition) at 1uM” value was 11.6%.
With `COCCNC(=O)c1ccc2c(c1)nc(C)n2-c1cc(OC)c(OC)c(OC)c1` the “hERG current change (%, negative = inhibition) at 1uM” value was 5.83%.
In the case of `O=C(C1CC1)N1N=C(c2ccccc2)CC1(O)C(F)(F)F` (stereo not drawn), the “hERG current change (%, negative = inhibition) at 1uM” value is reported as 13.1%.
In the case of `Cc1cccc(NC(=O)COn2nnc3ccc(S(C)(=O)=O)cc32)c1`, the “hERG current change (%, negative = inhibition) at 1uM” value is reported as 16%.
`Cn1c(=O)c2c(nc(NCC3CCCO3)n2Cc2ccccc2)n(C)c1=O` (stereo not drawn) was tested, and the “hERG current change (%, negative = inhibition) at 1uM” value was 7.3%.
With `COc1ccccc1C1(CCNS(=O)(=O)c2ccc(C)cc2)CCOC(C(C)C)C1` (stereo not drawn) the “hERG current change (%, negative = inhibition) at 1uM” value was 15.8%.
In the case of `CCOC(=O)c1c(C)[nH]c(NC(=O)NNC(=O)c2ccccc2Cl)c1C`, the “hERG current change (%, negative = inhibition) at 1uM” value is reported as 13.9%.
With `COCCCNC(=O)/C(C#N)=C/c1c(N2CCCCCC2)nc2ccccn2c1=O` the “hERG current change (%, negative = inhibition) at 1uM” value was 14.8%.
With `Cc1onc(-c2c(Cl)cccc2Cl)c1C(=O)NCC1CCCO1` (stereo not drawn) the “hERG current change (%, negative = inhibition) at 1uM” value was 14.4%.
For `O=C(CCN1C(=O)/C(=C/c2ccc(Cl)cc2)SC1=S)Nc1ccc(C(=O)O)cc1`, the “hERG current change (%, negative = inhibition) at 1uM” value was 5.96%.
For `NS(=O)(=O)c1ccc(S(=O)(=O)c2ccccc2)nc1`, the “hERG current change (%, negative = inhibition) at 1uM” value was 1.95%.
For `O=Cc1cn(CC(O)CN2CCCCC2)c2ccccc12` (stereo not drawn), the “hERG current change (%, negative = inhibition) at 1uM” value was -6.34%.
`COc1ccc(S(N)(=O)=O)cc1C(=O)NCCCN1CCN(c2cccc(Cl)c2)CC1.CS(=O)(=O)O` was tested, and the “hERG current change (%, negative = inhibition) at 1uM” value was -8.1%.
`COc1ccc(/C=N/NC(=O)c2ccco2)cc1Cn1nc(C)c([N+](=O)[O-])c1C` was tested, and the “hERG current change (%, negative = inhibition) at 1uM” value was 1.19%.
